The record followed here is the supplement of paper PMC12217912.

This is one part of the list. Sequences were assembled here from the parent chain. Values near 0.05 are background.

The labels stand for the following.
B1: TEV protease; numbered along this chain (parent)
chain: MGESLFKGPRDYNPISSSICHLTNESDGHTTSLYGIGFGPFIITNKHLFRRNNGTLVVQSLHGVFKVKDTTTLQQHLVDGRDMIIIRMPKDFPPFPQKLKFREPQREERICLVTTNFQTKSMSSMVSDTSCTFPSGDGIFWKHWIQTKDGQCGSPLVSTRDGFIVGIHSASNFTNTNNYFTSVPKNFMELLTNQEAQQWVSGWRLNADSVLWGGHKVFMVKPEEPFQPVKEATQL

The test covers variants of B1. Description: raw area under fraction-flipped curve 0-4 h after induction (AUC4h, not background-subtracted), DNA-recorder readout of cleavage of the substrate (dimensionless); higher = more cleavage of the substrate by the protease variant. Conditions: temperature: 34 °C; time window: 0-4 h after rhamnose induction. How it is done:
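In vivo DNA recorder in E. coli TOP10(DE3) ΔrhaA at 34 °C. Each TEVp single-site mutant (parent TEVp 0) is paired with a single-site variant of the 7-mer TEVs (canonical ENLYFQ|S). The substrate sits between flexible linkers in a Bxb1-sfGFP-TEVs-SsrA fusion, so cleavage stabilises Bxb1 and speeds flipping of a recombination array, read by NGS. The value is the raw area under the fraction-flipped curve over 0-4 h after rhamnose induction (AUC4h), with ≥20 reads per time point. It is not background-subtracted; inactive controls average about 0.047.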
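Further: Bxb1 expression induced with 0.2% (w/v) L-rhamnose at OD600 near 0.5, cultures sampled hourly, flipped fraction per protease–substrate barcode pair counted by paired-end Illumina sequencing.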

As for MGESLFKGPRDYNPISSSICHLTNEIDGHTTSLYGIGFGPFIITNKHLFRRNNGTLVVQSLHGVFKVKDTTTLQQHLVDGRDMIIIRMPKDFPPFPQKLKFREPQREERICLVTTNFQTKSMSSMVSDTSCTFPSGDGIFWKHWIQTKDGQCGSPLVSTRDGFIVGIHSASNFTNTNNYFTSVPKNFMELLTNQEAQQWVSGWRLNADSVLWGGHKVFMVKPEEPFQPVKEATQL [S26I], the “area with substrate ENLYAQS” value is 0.0642, the “area with substrate ENLYCQS” value turned out to be 0.0771, the “area with substrate ENLYDQS” value was 0.0505 and the “area with substrate ENLYEQS” value is 0.0638. The “area with substrate ENLYGQS” value was found to be 0.062, the “area with substrate ENLYHQS” value was 0.0463, the “area with substrate ENLYIQS” value was found to be 0.0728 and the “area with substrate ENLYKQS” value is 0.0629. The “area with substrate ENLYLQS” value was found to be 0.0728, the “area with substrate ENLYMQS” value is 0.0596, the “area with substrate ENLYPQS” value is 0.0524 and the “area with substrate ENLYQQS” value is 0.0496. Also, the “area with substrate ENLYTQS” value turned out to be 0.0527, the “area with substrate ENLYWQS” value came to 0.084 and the “area with substrate ENLYYQS” value was 0.0684.

As to MGESLFKGPRDYNPISSSICHLTNESDGHTTSLYGIGFGPYIITNKHLFRRNNGTLVVQSLHGVFKVKDTTTLQQHLVDGRDMIIIRMPKDFPPFPQKLKFREPQREERICLVTTNFQTKSMSSMVSDTSCTFPSGDGIFWKHWIQTKDGQCGSPLVSTRDGFIVGIHSASNFTNTNNYFTSVPKNFMELLTNQEAQQWVSGWRLNADSVLWGGHKVFMVKPEEPFQPVKEATQL [F41Y], the “area with substrate ENLYAQS” value is 0.0659, the “area with substrate ENLYDQS” value is 0.0524, the “area with substrate ENLYEQS” value worked out at 0.0516 and the “area with substrate ENLYGQS” value came out at 0.0482. Further, the “area with substrate ENLYHQS” value worked out at 0.075, the “area with substrate ENLYKQS” value came to 0.0036, the “area with substrate ENLYLQS” value stood at 0.0867 and the “area with substrate ENLYMQS” value was 0.0662. Further, the “area with substrate ENLYPQS” value came out at 0.0719, the “area with substrate ENLYQQS” value came out at 0.08, the “area with substrate ENLYRQS” value worked out at 0.0658 and the “area with substrate ENLYSQS” value came to 0.0722. Also, the “area with substrate ENLYTQS” value worked out at 0.0717, the “area with substrate ENLYVQS” value came to 0.122, the “area with substrate ENLYWQS” value was 0.0649 and the “area with substrate ENLYYQS” value is 0.0692.

For the variant MGESLFKGPRDYNPISSSICHLTNESFGHTTSLYGIGFGPFIITNKHLFRRNNGTLVVQSLHGVFKVKDTTTLQQHLVDGRDMIIIRMPKDFPPFPQKLKFREPQREERICLVTTNFQTKSMSSMVSDTSCTFPSGDGIFWKHWIQTKDGQCGSPLVSTRDGFIVGIHSASNFTNTNNYFTSVPKNFMELLTNQEAQQWVSGWRLNADSVLWGGHKVFMVKPEEPFQPVKEATQL [D27F], the “area with substrate ENLYAQS” value was 0.062, the “area with substrate ENLYCQS” value was found to be 0.0805, the “area with substrate ENLYDQS” value came to 0.0725 and the “area with substrate ENLYEQS” value amounted to 0.0585. In addition, the “area with substrate ENLYGQS” value came to 0.0835, the “area with substrate ENLYHQS” value came out at 0.0794, the “area with substrate ENLYIQS” value was 0.0649 and the “area with substrate ENLYMQS” value worked out at 0.0975. For the same variant, the “area with substrate ENLYNQS” value came to 0.0364, the “area with substrate ENLYPQS” value came to 0.0759, the “area with substrate ENLYQQS” value turned out to be 0.0754 and the “area with substrate ENLYRQS” value was 0.0529. Moreover, the “area with substrate ENLYSQS” value is 0.0656 and the “area with substrate ENLYTQS” value worked out at 0.0958.

For the variant MGESLFKGPRDYNPISSSICHLTNESDGHTTSAYGIGFGPFIITNKHLFRRNNGTLVVQSLHGVFKVKDTTTLQQHLVDGRDMIIIRMPKDFPPFPQKLKFREPQREERICLVTTNFQTKSMSSMVSDTSCTFPSGDGIFWKHWIQTKDGQCGSPLVSTRDGFIVGIHSASNFTNTNNYFTSVPKNFMELLTNQEAQQWVSGWRLNADSVLWGGHKVFMVKPEEPFQPVKEATQL [L33A], the “area with substrate ENLYAQS” value turned out to be 0.0722, the “area with substrate ENLYCQS” value worked out at 0.0734, the “area with substrate ENLYEQS” value came to 0.0747 and the “area with substrate ENLYGQS” value came to 0.0478. In addition, the “area with substrate ENLYHQS” value was 0.0546, the “area with substrate ENLYIQS” value was 0.0629, the “area with substrate ENLYKQS” value turned out to be 0.0591 and the “area with substrate ENLYNQS” value came to 0.0539. In addition, the “area with substrate ENLYPQS” value stood at 0.0679, the “area with substrate ENLYRQS” value stood at 0.0659, the “area with substrate ENLYTQS” value stood at 0.044 and the “area with substrate ENLYVQS” value is 0.0871. Besides, the “area with substrate ENLYWQS” value was 0.0713.

For MGESLFKGPRDYNPISSSICHLTNESDGHTTSTYGIGFGPFIITNKHLFRRNNGTLVVQSLHGVFKVKDTTTLQQHLVDGRDMIIIRMPKDFPPFPQKLKFREPQREERICLVTTNFQTKSMSSMVSDTSCTFPSGDGIFWKHWIQTKDGQCGSPLVSTRDGFIVGIHSASNFTNTNNYFTSVPKNFMELLTNQEAQQWVSGWRLNADSVLWGGHKVFMVKPEEPFQPVKEATQL [L33T], the “area with substrate ENLYAQS” value worked out at 0.0742, the “area with substrate ENLYEQS” value is 0.0687, the “area with substrate ENLYIQS” value came out at 0.0745 and the “area with substrate ENLYKQS” value is 0.0558. The “area with substrate ENLYNQS” value is 0.0558, the “area with substrate ENLYQQS” value stood at 0.0671, the “area with substrate ENLYRQS” value was 0.0494 and the “area with substrate ENLYVQS” value is 0.0835. Besides, the “area with substrate ENLYYQS” value was found to be 0.0605.

In the case of MWESLFKGPRDYNPISSSICHLTNESDGHTTSLYGIGFGPFIITNKHLFRRNNGTLVVQSLHGVFKVKDTTTLQQHLVDGRDMIIIRMPKDFPPFPQKLKFREPQREERICLVTTNFQTKSMSSMVSDTSCTFPSGDGIFWKHWIQTKDGQCGSPLVSTRDGFIVGIHSASNFTNTNNYFTSVPKNFMELLTNQEAQQWVSGWRLNADSVLWGGHKVFMVKPEEPFQPVKEATQL [G2W], the “area with substrate ENLYAQS” value came out at 0.0889, the “area with substrate ENLYDQS” value amounted to 0.0613, the “area with substrate ENLYEQS” value was 0.0676 and the “area with substrate ENLYGQS” value was 0.0415. In addition, the “area with substrate ENLYQQS” value came to 0.0618 and the “area with substrate ENLYRQS” value was determined as 0.0663.

With MVESLFKGPRDYNPISSSICHLTNESDGHTTSLYGIGFGPFIITNKHLFRRNNGTLVVQSLHGVFKVKDTTTLQQHLVDGRDMIIIRMPKDFPPFPQKLKFREPQREERICLVTTNFQTKSMSSMVSDTSCTFPSGDGIFWKHWIQTKDGQCGSPLVSTRDGFIVGIHSASNFTNTNNYFTSVPKNFMELLTNQEAQQWVSGWRLNADSVLWGGHKVFMVKPEEPFQPVKEATQL [G2V], the “area with substrate ENLYAQS” value was determined as 0.0951, the “area with substrate ENLYDQS” value is 0.0434, the “area with substrate ENLYEQS” value was 0.0669 and the “area with substrate ENLYGQS” value is 0.0771. For the same variant, the “area with substrate ENLYHQS” value was determined as 0.0693, the “area with substrate ENLYIQS” value was determined as 0.157, the “area with substrate ENLYKQS” value worked out at 0.0534 and the “area with substrate ENLYLQS” value was 0.0926. Moreover, the “area with substrate ENLYMQS” value came out at 0.108, the “area with substrate ENLYPQS” value came to 0.0912, the “area with substrate ENLYQQS” value turned out to be 0.0549 and the “area with substrate ENLYSQS” value stood at 0.0854. In addition, the “area with substrate ENLYTQS” value stood at 0.121, the “area with substrate ENLYVQS” value was 0.069, the “area with substrate ENLYWQS” value worked out at 0.13 and the “area with substrate ENLYYQS” value amounted to 0.064.

Consider MGESLFKGPRDYNPISSSICHLTIESDGHTTSLYGIGFGPFIITNKHLFRRNNGTLVVQSLHGVFKVKDTTTLQQHLVDGRDMIIIRMPKDFPPFPQKLKFREPQREERICLVTTNFQTKSMSSMVSDTSCTFPSGDGIFWKHWIQTKDGQCGSPLVSTRDGFIVGIHSASNFTNTNNYFTSVPKNFMELLTNQEAQQWVSGWRLNADSVLWGGHKVFMVKPEEPFQPVKEATQL [N24I], for which the “area with substrate ENLYAQS” value was 0.0774, the “area with substrate ENLYDQS” value is 0.0589, the “area with substrate ENLYEQS” value was 0.0654 and the “area with substrate ENLYGQS” value is 0.0602. In addition, the “area with substrate ENLYHQS” value was found to be 0.056, the “area with substrate ENLYIQS” value is 0.0689, the “area with substrate ENLYKQS” value was determined as 0.0555 and the “area with substrate ENLYLQS” value worked out at 0.0803. The “area with substrate ENLYMQS” value is 0.0651, the “area with substrate ENLYNQS” value came out at 0.0825, the “area with substrate ENLYPQS” value turned out to be 0.062 and the “area with substrate ENLYQQS” value stood at 0.0559. Further, the “area with substrate ENLYRQS” value was found to be 0.0578, the “area with substrate ENLYSQS” value stood at 0.0626, the “area with substrate ENLYVQS” value was 0.0685 and the “area with substrate ENLYWQS” value was 0.0668. Moreover, the “area with substrate ENLYYQS” value amounted to 0.0651.

As for MGESLFKGPRDYNPISSSICHLFNESDGHTTSLYGIGFGPFIITNKHLFRRNNGTLVVQSLHGVFKVKDTTTLQQHLVDGRDMIIIRMPKDFPPFPQKLKFREPQREERICLVTTNFQTKSMSSMVSDTSCTFPSGDGIFWKHWIQTKDGQCGSPLVSTRDGFIVGIHSASNFTNTNNYFTSVPKNFMELLTNQEAQQWVSGWRLNADSVLWGGHKVFMVKPEEPFQPVKEATQL [T23F], the “area with substrate ENLYAQS” value came to 0.0664, the “area with substrate ENLYDQS” value turned out to be 0.0622, the “area with substrate ENLYEQS” value was determined as 0.0704 and the “area with substrate ENLYGQS” value turned out to be 0.0574. In addition, the “area with substrate ENLYHQS” value amounted to 0.0701, the “area with substrate ENLYIQS” value was determined as 0.116, the “area with substrate ENLYKQS” value worked out at 0.0622 and the “area with substrate ENLYPQS” value stood at 0.0717. Further, the “area with substrate ENLYQQS” value is 0.059, the “area with substrate ENLYRQS” value was found to be 0.0703, the “area with substrate ENLYSQS” value worked out at 0.0644 and the “area with substrate ENLYVQS” value came to 0.0866. Besides, the “area with substrate ENLYWQS” value was 0.0798 and the “area with substrate ENLYYQS” value is 0.0713.
